Assay results taken from the supplement of paper PMC4967469.
By IC50 is meant the dose at which the fit gives 50% viability; where the fit passes the top or lowest dose, that dose stands as a limit. AUC sums up the same curve from the lowest dose to the 256-fold higher top dose; the more sensitive the line, the further below 1. The top dose, if marked as inferred, is not printed in the source and was worked back from the curve model.

Assays:
Assay in all cases: Viability of human cancer cell lines after 72 h of drug (GDSC screen)
EKB-569 = compound: CCOc1cc2ncc(C#N)c(Nc3ccc(F)c(Cl)c3)c2cc1NC(=O)/C=C/CN(C)C [EKB-569]; conditions: top dose inferred
Protocol: (§1)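 Human cancer cell lines in 384-well plates, medium with 10% serum, drug for 72 h over a 256-fold dose range (nine 2-fold or five 4-fold steps up to the top dose). Adherent lines were fixed and stained with the nucleic acid dye Syto60, suspension lines read with resazurin; signal relative to control wells, capped at 0 and 100%. One two-parameter sigmoid per drug and line, fitted in a mixed model over all curves with the slope shared within a line.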

PFI-1 = compound: COc1ccccc1S(=O)(=O)Nc1ccc2c(c1)CN(C)C(=O)N2 [PFI-1]; conditions: top dose 10 µM; top dose inferred
Protocol: as §1

NG-25 = compound: CCN1CCN(Cc2ccc(NC(=O)c3ccc(C)c(Oc4ccnc5[nH]ccc45)c3)cc2C(F)(F)F)CC1 [NG-25]; conditions: top dose 10.24 µM; top dose inferred
Protocol: as §1

Row | Cell Line | AUC (EKB-569) | IC50 (EKB-569) | AUC (PFI-1) | IC50 (PFI-1) | AUC (NG-25) | IC50 (NG-25)
1 | SKG-IIIa (cervix, adherent, top dose 2.5 µM) | 0.976 | > 2.5 µM | – | – | – | –
2 | L-428 (Hodgkin lymphoma, suspension, top dose 2.5 µM) | 0.954 | > 2.5 µM | – | – | – | –
3 | SK-ES-1 (Ewing sarcoma, semi-adherent, top dose 2.5 µM) | 0.789 | 1.18 µM | – | – | – | –
4 | BE-13 (lymphoblastic leukaemia, suspension, top dose 2.5 µM) | 0.724 | 0.643 µM | – | – | – | –
5 | HL-60 (acute myeloid leukaemia, suspension, top dose 2.5 µM) | 0.842 | 1.5 µM | – | – | – | –
6 | NCI-H2023 (lung adenocarcinoma, adherent, top dose 2.5 µM) | 0.98 | > 2.5 µM | – | – | – | –
7 | RPMI-8402 (T-cell lymphoblastic leukaemia, suspension, top dose 20 µM) | 0.15 | 0.134 µM | – | – | – | –
8 | YKG-1 (glioma, adherent, top dose 2.5 µM) | 0.946 | > 2.5 µM | – | – | – | –
9 | HCC1569 (breast, adherent, top dose 2.5 µM) | 0.843 | > 2.5 µM | – | – | – | –
10 | TK10 (kidney, adherent, top dose 2.5 µM) | 0.854 | > 2.5 µM | – | – | – | –
11 | P12-ICHIKAWA (T-cell lymphoblastic leukaemia, suspension, top dose 20 µM) | 0.45 | 0.94 µM | – | – | – | –
12 | KY821 (leukaemia, suspension, top dose 2.5 µM) | 0.923 | > 2.5 µM | – | – | – | –
13 | BFTC-905 (bladder, adherent, top dose 2.5 µM) | 0.966 | > 2.5 µM | – | – | – | –
14 | OACM5-1 (oesophagus, semi-adherent, top dose 2.5 µM) | 0.953 | > 2.5 µM | – | – | – | –
15 | KON (head and neck, adherent, top dose 2.5 µM) | 0.983 | > 2.5 µM | – | – | – | –
16 | JHH-1 (liver, adherent, top dose 2.5 µM) | 0.382 | 0.0717 µM | – | – | – | –
17 | KYSE-140 (oesophagus, adherent, top dose 2.5 µM) | 0.409 | 0.0852 µM | – | – | – | –
18 | NCI-H522 (lung adenocarcinoma, adherent, top dose 2.5 µM) | 0.967 | > 2.5 µM | – | – | – | –
19 | LNZTA3WT4 (glioma, adherent, top dose 2.5 µM) | 0.981 | > 2.5 µM | – | – | – | –
20 | SW48 (large intestine, adherent, top dose 20 µM) | 0.881 | > 20 µM | – | – | – | –
21 | HT-3 (cervix, adherent, top dose 2.5 µM) | 0.929 | > 2.5 µM | – | – | – | –
22 | CA46 (Burkitt lymphoma, suspension, top dose 2.5 µM) | 0.778 | 1.09 µM | – | – | – | –
23 | BHT-101 (thyroid, adherent, top dose 2.5 µM) | 0.981 | > 2.5 µM | – | – | – | –

Row | Cell Line | AUC (EKB-569) | IC50 (EKB-569) | AUC (PFI-1) | IC50 (PFI-1) | AUC (NG-25) | IC50 (NG-25)
24 | KARPAS-620 (haematopoietic neoplasm, suspension, top dose 2.5 µM) | 0.755 | 0.742 µM | – | – | – | –
25 | NCI-H1437 (lung adenocarcinoma, adherent, top dose 2.5 µM) | 0.946 | > 2.5 µM | – | – | – | –
26 | ESO26 (oesophagus, adherent, top dose 2.5 µM) | 0.437 | 0.106 µM | – | – | – | –
27 | MOLM-13 (acute myeloid leukaemia, suspension, top dose 2.5 µM) | 0.546 | 0.207 µM | – | – | – | –
28 | MHH-ES-1 (Ewing sarcoma, adherent, top dose 2.5 µM) | 0.917 | > 2.5 µM | – | – | – | –
29 | SK-UT-1 (soft tissue, adherent, top dose 2.5 µM) | 0.976 | > 2.5 µM | – | – | – | –
30 | SUP-T1 (T-cell lymphoblastic leukaemia, suspension, top dose 20 µM) | 0.677 | 3.7 µM | – | – | – | –
31 | RCC-FG2 (kidney, adherent, top dose 2.5 µM) | 0.863 | > 2.5 µM | – | – | – | –
32 | KINGS-1 (glioma, adherent, top dose 2.5 µM) | 0.964 | > 2.5 µM | – | – | – | –
33 | CHP-134 (neuroblastoma, suspension, top dose 2.5 µM) | 0.962 | > 2.5 µM | – | – | – | –
34 | SISO (cervix, adherent, top dose 2.5 µM) | 0.936 | > 2.5 µM | – | – | – | –
35 | NCI-H1869 (lung squamous cell carcinoma, adherent, top dose 2.5 µM) | 0.817 | 1.63 µM | – | – | – | –
36 | NTERA-2 cl.D1 (testis, adherent, top dose 2.5 µM) | 0.943 | > 2.5 µM | – | – | – | –
37 | CAL-62 (thyroid, adherent, top dose 2.5 µM) | 0.975 | > 2.5 µM | – | – | – | –
38 | VM-CUB-1 (bladder, adherent, top dose 2.5 µM) | 0.953 | > 2.5 µM | – | – | – | –
39 | EW-11 (Ewing sarcoma, adherent, top dose 2.5 µM) | 0.855 | > 2.5 µM | – | – | – | –
40 | PL4 (pancreas, adherent, top dose 2.5 µM) | 0.985 | > 2.5 µM | – | – | – | –
41 | MMAC-SF (melanoma, adherent, top dose 2.5 µM) | 0.971 | > 2.5 µM | – | – | – | –
42 | Ca9-22 (head and neck, adherent, top dose 2.5 µM) | 0.834 | 1.47 µM | – | – | – | –
43 | NCI-H2085 (lung adenocarcinoma, adherent, top dose 2.5 µM) | 0.845 | 2.03 µM | – | – | – | –
44 | MSTO-211H (mesothelioma, adherent, top dose 2.5 µM) | 0.99 | > 2.5 µM | – | – | – | –
45 | NCI-H748 (small cell lung carcinoma, suspension, top dose 2.5 µM) | 0.959 | > 2.5 µM | – | – | – | –
46 | Raji (Burkitt lymphoma, suspension, top dose 2.5 µM) | 0.988 | > 2.5 µM | – | – | – | –

Row | Cell Line | AUC (EKB-569) | IC50 (EKB-569) | AUC (PFI-1) | IC50 (PFI-1) | AUC (NG-25) | IC50 (NG-25)
47 | SU8686 (pancreas, adherent, top dose 2.5 µM) | 0.957 | > 2.5 µM | – | – | – | –
48 | ES6 (Ewing sarcoma, adherent, top dose 2.5 µM) | 0.937 | > 2.5 µM | – | – | – | –
49 | 8505C (thyroid, adherent, top dose 2.5 µM) | 0.93 | > 2.5 µM | – | – | – | –
50 | OVCAR-8 (ovary, adherent, top dose 2.5 µM) | 0.92 | > 2.5 µM | – | – | – | –
51 | OVKATE (ovary, adherent, top dose 2.5 µM) | 0.947 | > 2.5 µM | – | – | – | –
52 | ALL-SIL (T-cell leukaemia, suspension, top dose 20 µM) | 0.079 | < 0.0781 µM | – | – | – | –
53 | SNU-1040 (large intestine, adherent, top dose 2.5 µM) | 0.636 | 0.425 µM | – | – | – | –
54 | KARPAS-45 (lymphoblastic leukaemia, suspension, top dose 20 µM) | 0.212 | 0.216 µM | – | – | – | –
55 | OVCA433 (ovary, adherent) | – | – | 0.882 | > 10 µM | 0.932 | > 10.2 µM
56 | JHOS-2 (ovary, adherent) | – | – | 0.843 | 8.88 µM | 0.808 | 6.42 µM
57 | KMS-11 (myeloma, suspension) | – | – | 0.786 | 3.66 µM | 0.761 | 3.15 µM
58 | SNU-61 (large intestine, adherent) | – | – | 0.958 | > 10 µM | 0.955 | > 10.2 µM
59 | SNU-C5 (large intestine, adherent) | – | – | 0.883 | > 10 µM | 0.958 | > 10.2 µM
60 | RCC-JF (kidney, adherent) | – | – | 0.942 | > 10 µM | 0.857 | 10.1 µM
61 | RCC-MF (kidney, adherent) | – | – | 0.838 | 9.89 µM | 0.718 | 3.24 µM
62 | SW1116 (large intestine, adherent) | – | – | 0.925 | > 10 µM | 0.985 | > 10.2 µM
63 | RCC-JW (kidney, adherent) | – | – | 0.9 | > 10 µM | 0.91 | > 10.2 µM
64 | SK-GT-4 (oesophagus, adherent) | – | – | 0.801 | 6.31 µM | 0.909 | > 10.2 µM
65 | YH-13 (glioma, adherent) | – | – | 0.819 | 6.1 µM | 0.908 | > 10.2 µM
66 | SK-MG-1 (glioma, adherent) | – | – | 0.87 | 9.53 µM | 0.897 | > 10.2 µM
67 | DOV13 (ovary, adherent) | – | – | 0.803 | 5.9 µM | 0.929 | > 10.2 µM
68 | KYAE-1 (oesophagus, suspension) | – | – | 0.899 | > 10 µM | 0.823 | 6.87 µM
